According to ChEMBL document CHEMBL4888484, “Replenishing the malaria drug discovery pipeline: Screening and hit evaluation of the MMV Hit Generation Library 1 (HGL1) against asexual blood stage Plasmodium falciparum ,using a nano luciferase reporter read-out” (2022):
Out of some 150,000 compounds screened, about 540 (0.36%) showed an effect of 50% or more. This is one part of the list.

test system: Plasmodium falciparum; assay: Primary screen in NF54 nanoGlo assay, in single point, at 2uM, 72h; a lower Z score goes with more inhibition; assay type: functional, Erythrocyte; settings: timepoint 72 hour

SMILES	% Inhibition [%]	Z score
COc1ccccc1CCNC(=O)CC[C@@H]1CN(Cc2ccccc2)CC[C@@H]1N1CCN(C)CC1	8	-0.91
CC(C)(C)S(=O)(=O)[C@H]1CCN(C(=O)Cc2c(F)cccc2Cl)C1	4	-0.7
C[C@@]1(C(=O)NCc2ccccc2)Cn2cnc(C(=O)N3CCOCC3)c2C(=O)N1C1CC1	-9	1.71
Cc1c(Cl)cccc1-c1ccc(C(=O)N[C@@H](C)c2nc(C3CC3)no2)cc1	-5	0.91
Cc1cccc(NC(=O)[C@@H](C#N)C(=O)COc2ccc(F)cc2)c1	-3	0.45
Cc1ncsc1CCc1nc(CN2CCOCC2)no1	20	-2.72
CCn1cnnc1[C@H]1CCCN(Cc2cc(F)cc(F)c2)C1	-12	1.28
C=C[C@H]1OCC[C@@H]1C(=O)NC1(C(=O)N(C)C)CCCCC1	-1	0.12
CCc1noc(C)c1C(=O)OCc1nc(N)nc(Nc2ccccc2)n1	-10	1.86
Cc1ccc(OCc2c(C(=O)N3CCC[C@H](c4nc(C)ncc4CO)C3)noc2C)cc1	-17	1.96
CCCc1nnc(NCC2(COC)CCCC2)s1	-12	2.33
Cc1cnn([C@@H](C)C2CC2)c1NC(=O)c1nn(C)c(=O)c2ccccc12	12	-1.69
Cc1c[nH]c(C(=O)N2CCN(C)[C@@]3(CCNC(=O)CC3)C2)c1	-10	1.55
Cc1nc([C@H](C)NC(=O)c2ccc(C)s2)n[nH]1	-10	1.7
COc1ccc2nc(C)c(C(=O)N3CCO[C@@H](COC(C)C)C3)n2n1	9	-1.08
O=C(Nc1ccn(-c2ncccc2Cl)n1)N1CC[C@H](O)C1	0	0.04
CCc1nnsc1C(=O)NCCN1CCCCC1	1	-0.16
COC(=O)[C@H]1Cc2[nH]ncc2N(Cc2ncc(C)o2)C1	5	-0.6
O=C(CCc1cccnc1)N[C@H]1CCN(c2cnccn2)C[C@@H]1O	-17	2.98
CCN1CCCC[C@@H]1CNS(=O)(=O)c1ccnn1C(C)C	-6	1.35
CCC[C@]1(CO)CCCN(C(=O)c2cnc(-c3cccnc3)nc2C)C1	-7	1.37

SMILES	% Inhibition [%]	Z score
COc1ccc(CCCN(C)c2ccc(-c3nc(C)c(C)c(=O)[nH]3)cn2)cc1	-14	1.81
O=C(Nc1nnc2ccccn12)c1cccc(NC(=O)c2ccco2)c1	-11	2.26
O=C(c1ccc2sccc2c1)N1CCOCC1	-7	0.75
CCCN(CC#Cc1ccccc1)C(=O)c1c(Cl)cnn1CC	-1	0.07
CN(CCN(C)c1nc(C2CCCCC2)ns1)C(=O)[C@H]1CCC(=O)N1	4	-0.64
CCc1cc(N2CCC[C@](Cc3ccc(F)cc3F)(C(=O)O)C2)ncn1	5	-1.02
CC(C)c1cnc(N2CCC(c3nnc4n3CCNC4)CC2)s1	-1	0.2
CCc1cccc2c1N(Cc1ncoc1C1CC1)CCC2	-10	0.82
O=C(Cc1noc2ccccc12)N1CCN(c2ccc(-c3ccccn3)nn2)CC1	6	-0.88
CCN(CCO)CC(=O)Nc1c(Cl)cccc1Cl	-4	0.67
CN(C)C(=O)Cn1cc2c(n1)[C@@H](Nc1ccc(C(F)(F)F)nn1)CCC2	-6	0.66
CN1CCCN(C(=O)NC[C@H]2CCCN2Cc2ccccc2)CC1=O	-6	0.7
Cc1ccoc1CN[C@H](c1nc(C2CC2)no1)C(C)C	-1	0.14
CN1CCC(n2nc(C3CCCC3)nc2-c2c[nH]nc2-n2cnnn2)CC1	-8	1.06
O=C(Nc1nc(C2CC2)cs1)[C@H]1CCOC1	10	-1.28
CCCn1cnnc1[C@H](C)NC(=O)c1cncc(F)c1	-8	0.78
CN1CCN2CCN(C(=O)c3ccc(F)c(O)c3)C[C@@H]2C1	-7	1.23
O=C(c1ccc(Oc2ccccc2)o1)N1C[C@@H](CN2CCOCC2)[C@@H](CO)C1	-13	1.25
N#Cc1cc(N2CCC3(CCN(Cc4ccccc4)CC3)CC2)ncn1	9	-1.05
Cc1c(C(=O)N(C)CC2(O)CCCC2)nnn1-c1cccc2ncccc12	-19	2.36
O=C(CCc1nc2ncccc2[nH]1)NCCCN1CCOCC1	-9	0.96

SMILES	% Inhibition [%]	Z score
O=C(c1ccc(-n2cccn2)nn1)N1CCc2ccccc21	-8	1.43
O=C(NCc1cncc(C2CC2)c1)c1ccc2c(c1)OCO2	-7	1.2
CC1CCC2(CCN(S(=O)(=O)CCC(F)(F)F)C2)C1 (stereo not drawn)	1	-0.11
COC(=O)[C@@H](NC(=O)c1ccccc1F)C(C)C	-10	1.32
CCC(C)N(C(=O)c1cc(OC)c(OC)c(OC)c1)C(C)CC (stereo not drawn)	0	0.04
O=C(CS(=O)(=O)[C@H]1CCOC1)N1CCCc2ccccc21	19	-2.42
O=C(N[C@@H](CCO)C1CCCC1)c1cc2n(n1)CCCC2=O	-11	2.06
Cc1nc(C)c(C(=O)N2CC(n3ccnc3)C2)s1	-13	1.66
COC(=O)C1(CNC(=O)c2cc(Cl)c[nH]2)CCCCC1	-1	0.13
N[C@@H]1C[C@@H]2CC(C(=O)Nc3cnc4c(F)c(F)ccc4c3)C[C@@H]21 (stereo partly drawn)	-5	0.97
Cc1ccc(NC(=O)c2ccc3c(c2)nnn3C2CCCC2)cc1	-6	0.75
O=C(Cc1cccc(O)c1)N1CCO[C@H](c2ccsc2)C1	-13	1.57
CC[C@H]1CC[C@H](C(=O)N2CCC(C)C(O)C2)CC1 (stereo partly drawn)	-6	0.88
CCCNC(=O)c1nc(CCS(=O)(=O)c2ccc(C)cc2)no1	-5	0.79
COc1ccccc1N1C(=O)C2C(C)NC3(C(=O)N(Cc4ccc(F)cc4)c4ccccc43)C2C1=O (stereo not drawn)	40	-4.52
Cc1ccc(C(=O)N2CC(C)CC(C)C2)cc1NCc1cc[nH]n1 (stereo not drawn)	0	0.04
CC1(C)CC(NC(=O)C2CCCO2)CC(C)(CNC(=O)C2CCCO2)C1 (stereo not drawn)	-14	1.83
CO[C@H]1[C@H](NC(=O)c2cccs2)c2ccccc2C12CCN(Cc1c(F)cccc1F)CC2	-20	2.49
CC(C)[C@H](Nc1nccs1)C(=O)NC1CCCCC1	-9	1.36
Cc1nnc(N2CCC[C@H](c3nc4c(s3)CCC4)C2)nc1C	-8	1.5
CC(C)(C)c1nnnn1CCn1cccn1	-3	0.28

SMILES	% Inhibition [%]	Z score
O=C1CCN(C(=O)C2CCN(S(=O)(=O)c3ccc4c(c3)CCC4)CC2)CCCCCCN1	-15	1.82
CC1(C)Cc2nc(C(C)(C)C)ncc2[C@@H](NCc2cc(C#CCO)cs2)C1	-6	1.15
Fc1ccc(-c2nc(-c3ccc(N4CCCCC4)nc3)no2)cc1F	2	-0.24
COc1ccc(Cl)cc1NC(=O)Cn1nc(Nc2cccc(F)c2)c(S(=O)(=O)c2ccc(C)cc2)c1N	-3	0.34
Cc1cc(C)cc([C@H]2CCN(C(=O)c3cc(N4CCCC4=O)ccc3F)C2)c1	-16	2.31
NC(=NOCC(=O)NCCC1=CCCCC1)C1CCCC1	-5	0.99
CC1(C)C[C@@H](NC(=O)c2cnn(-c3ccncc3)c2)CCO1	-9	1.66
CC(C)S(=O)(=O)N1CCC(N2C[C@H](OCC3CC3)C23CCCCC3)CC1	7	-1.15
Cc1ccn(Cc2nc(CC(C)C)no2)n1	-7	0.89
O=C(c1cccc(C(F)(F)F)c1)N1CCOc2ccc(CN3CCCC3)cc2C1	-4	0.77
CCn1cc(NC(=O)c2cc(C3CC3)nc3onc(-c4cnn(CC)c4C)c23)c(C)n1	8	-1.2
Nc1nnc(CCNC(=O)Cn2nnnc2CN2CCCCCC2)s1	-18	2.39
CCNC(=O)N(Cc1ccccc1OS(=O)(=O)CC)CC1CC1	3	-0.36
CC(C)CCn1c(CN2Cc3[nH]cnc3C[C@H]2C(=O)O)nc2ccccc21	5	-0.93
O=C1c2[nH]nc(-c3ccc(Cl)cc3)c2[C@@H](c2cccnc2)N1CCc1c[nH]c2ccccc12	6	-0.82
O=C(C[C@@H]1CCNC[C@@H]1Cc1cc(CC2CCCCC2)on1)N1CCN(Cc2ccccc2)CC1	-4	0.74
CO[C@@]1(C(=O)NCc2ccc(Nc3ccncc3)cc2)CCOC1	-1	0.12
CCC1(C(=O)NC)CCN(c2ncc(C#N)c(N)n2)CC1	-11	1.29
O=C1C[C@H](NC(=O)Cc2ccc(OC(F)F)c(F)c2)CN1	-9	1.61
O=C(Nc1ccccc1F)c1cccc(-c2nc(-c3ccccc3)no2)c1	-12	1.43
C[C@H]1C[C@@H](CO)CCN1C(=O)c1cc2ccc(C(F)(F)F)cc2[nH]1	-7	0.69
